Assay results taken from PMC9574860, “Chemical Toolkit for PARK7: Potent, Selective, and High-Throughput” (Journal of Medicinal Chemistry, 2022).
The whole screen tested about 7,900 compounds, of which about 400 (5.1%) showed an effect of 50% or more. This is one part of the list.

Target: Parkinson's disease protein 7 (PARK7/DJ1) (human, UniProt Q99497)
Experiment: primary screen, percent inhibition; read as competition with a fluorescent probe by fluorescence polarization; higher = more effect of the substance
Conditions: 100 µM
Summary of the method: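 Fluorescence-polarization probe displacement (JYQ-107, 20 nM final, 2 h) after 2 h preincubation of PARK7 (0.2 μM final) with each fragment at 100 μM final. Read-out ex/em 480/520 nm; remaining activity derived from FP signal loss relative to reference controls.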

Chain of Parkinson's disease protein 7 (PARK7/DJ1) (Q99497 whole entry, looked up): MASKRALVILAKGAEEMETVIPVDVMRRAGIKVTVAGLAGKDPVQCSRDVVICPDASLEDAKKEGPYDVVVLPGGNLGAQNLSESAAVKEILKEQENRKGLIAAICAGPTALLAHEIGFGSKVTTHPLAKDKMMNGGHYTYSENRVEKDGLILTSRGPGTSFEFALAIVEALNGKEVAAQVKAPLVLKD

Compound	Inhibition % [%]
CC1(C)OB(C2=CCN(C(=O)OCc3ccccc3)CC2)OC1(C)C	4.89
Cn1c(S)nc2ccsc2c1=O	5.34
Cc1ccc(N)cc1S(=O)(=O)F	95.9
N#Cc1nn[nH]c1-c1cccnc1	1.36
Cl.N#CC(=Cc1ccccc1)C(=O)NCCN1CCOCC1	1.67
Cc1nc(S)nc(C)c1CCC(=O)O	-1.24
N#CC(=Cc1cccc(F)c1)c1nnc2n1CCCCC2	-0.367
C=CC(=O)N1CCC(CN(C)Cc2scnc2C)C1 (stereo not drawn)	13.2
O=C(O)C1CCCN1C(=O)C=Cc1cccnc1 (stereo not drawn)	3.63
C=CC(=O)N1CCN(c2ccncc2Cl)CC1	9.46
CC1(C)C(=O)NC1C1CCN(c2ncccn2)CC1 (stereo not drawn)	13.6
N#CC(=Cc1cccnc1)c1nc2ccccc2c(=O)[nH]1	1.06
Cc1ccc(C=CS(=O)(=O)N2CCOC(C(C)C)C2)cc1 (stereo not drawn)	6.99
O=C(CCl)NCC(=O)N1CCCC1	2.12
C=C(C)c1nc(C#N)c(NCc2ccc(OC)cc2)o1	3.5
Cn1c(C#N)cnc1Cl	0.0898
Cc1cc2ccccn2c1C#N	5.89
CC1CC(N2CCCC2Cn2cccn2)C(=O)O1 (stereo not drawn)	18.4
Cc1ccc(Cc2cnc(NC(=O)CCl)s2)cc1	7.26
C=CC(=O)N1CCN(S(=O)(=O)Cc2ccon2)CC1	9.01
O=C(CCl)Nc1ccc(Oc2ccccc2Cl)cc1	93.7
Fc1cccc(CN2CCCC(C3OCCO3)C2)c1F (stereo not drawn)	20.9
C=CC(=O)N(C)CC(C)(C)CN1CCOCC1	12.8
Cc1nn(-c2ccccc2)c(C)c1NC(=O)CCl	6.29
C=CC(=O)N1CCN2CCOCC2C1 (stereo not drawn)	8.35
CC(CC(O)c1ccccc1)NC(=O)c1cccnc1S (stereo not drawn)	5.61

Compound	Inhibition % [%]
N#Cc1ccc(N2CCS(=O)CC2)cn1	2.19
CNS(=O)(=O)C=Cc1ccccc1	4.44
Cc1c(Cl)ccc(S(=O)(=O)n2ccnc2C)c1Cl	7.13
CC(C)(C)OC(=O)N1Cc2cccc(B3OC(C)(C)C(C)(C)O3)c2C1	2.85
C=CC(=O)NC(c1ccc(C)cc1)c1ccccn1 (stereo not drawn)	4.1
C=CC(=O)Nc1ccnc2cccnc12	8.73
O=S(=O)(F)CCN1CCCn2ncc(C3CC3)c21	28.8
C=CC(=O)N1CCOc2cccc(F)c2C1	-0.151
O=C1NC(=O)C(CCS)N1 (stereo not drawn)	26.8
C=CC(=O)NC1C2CCOC2C12CCCC2 (stereo not drawn)	5.2
CC1OCCC12CN(C(=O)c1cccc(B(O)O)c1)CCO2 (stereo not drawn)	3.19
Cc1ccc(Cl)cc1Oc1nccnc1C#N	5.48
C=CC(=O)N1CCN(C(C)c2nccs2)CC1 (stereo not drawn)	11.2
O=C(CCl)Nc1cc(-n2cnnn2)ccc1Cl	6.29
C=CC(=O)N(CCc1nccs1)C(C)C	15
CC(C)Oc1ccc2[nH]cc(C(=O)CCl)c2c1	12.4
C=CC(=O)NCCC1=CCCCCC1	2.8
N#Cc1cc(OCC(F)F)ccn1	22.9
C=CC(=O)N1CCN(c2ccc(C)o2)C(=O)C1	5.39
COCC1CC2OC2C1 (stereo not drawn)	4.9
CC1(C)OB(c2cccs2)OC1(C)C	1.39
C=CC(=O)N(C)C[C@@H]1C[C@H](F)CN1c1ccncn1	8.19
Cc1ccc(S(=O)(=O)OCC2CCC(=O)N2)cc1 (stereo not drawn)	4.34
C=CC(=O)Nc1c(C)nn(CC)c1C	2.74
O=C1OCCC1Sc1n[nH]c(-c2cc(F)cc(F)c2)n1 (stereo not drawn)	16.8
C=CC(=O)N(C)CC(=O)N1c2ccccc2NC(=O)CC1C (stereo not drawn)	1.23

Compound	Inhibition % [%]
COC(=O)c1c(NC(=O)CCl)sc2c1CCC2	6.77
CCN(Cc1ccc(Cl)s1)C(=O)CCl	9.61
C=CC(=O)N1CCCCC(C2CCOC2)C1 (stereo not drawn)	8.08
CCOc1cc(S(=O)(=O)n2cnc(C)c2)ccc1Cl	7.03
C=CC(=O)N1CCCN(Cc2nccn2C)CC1	10.6
O=C1SCCN1CN1CCN(c2ccccc2F)CC1	3.81
C=CC(=O)N1CCc2ccn(C)c2C1	13.1
N#Cc1ncn(CCC(=O)Nc2ccccc2)n1	0.146
N#Cc1cnc(Oc2ccc(F)c(C(F)(F)F)c2)cn1	7.97
C=CC(=O)NC1CCc2cn(C(C)C)nc2C1 (stereo not drawn)	11.9
N#Cc1cnc(SCC(=O)Nc2ccccc2)cn1	23.1
C=CCOc1ccc(Cl)c(C#N)n1	4.33
Cl.ClCCCc1ccccn1	3.8
O=C(CCl)N1CCCc2ccccc21	69.2
O=C(CCl)NC1CCC2(CC1)OCCO2	15.9
O=C(CCl)c1ccc(N2CCOC2=O)cc1	24.5
C=CC(=O)N1CCN(C(C)=O)CC1	4.07
COc1ccc(C2(C)NC(=O)N(NC(=O)CCl)C2=O)cc1 (stereo not drawn)	1.98
C=CC(=O)N[C@H]1C[C@H](C)S(=O)(=O)c2sccc21	7.51
O=C(CN1CCSC1=O)Nc1cc(Cl)ccc1F	6.77
O=C(NCC1CCCS1(=O)=O)c1cccnc1S (stereo not drawn)	1.97
CCN(CC)C(=O)Oc1cccc2cccnc12.Cl	6.29
C=CC(=O)NCc1cn2c(n1)CCCC2	7.61
C=CC(=O)N1CCC(COC)CC1	25.8
Cc1ccc(-c2nnc(C)[nH]2)c(NC(=O)CCl)c1	24.2
Cc1cccc(Cl)c1B1OC(C)(C)C(C)(C)O1	12.2

Compound	Inhibition % [%]
CNC1CCCN(C(=O)C=Cc2ccnn2C)C1.Cl (stereo not drawn)	6.67
C=CC(=O)N1CCCC1c1nccc(C(F)(F)F)n1 (stereo not drawn)	8.62
O=C(CCl)N1c2ccccc2Sc2ccc(Cl)cc21	6.3
O=C(Nc1ccc2c(c1)COC2)c1cccnc1S	2.52
O=c1c2ccccc2nc(S)n1C1CC1	4.16
C=CC(=O)N1CCN(C(=O)COC)CC1	-2.75
C=CC(=O)NC1CCOC(C(C)(C)C)C1 (stereo not drawn)	-3.67
O=C(CC1OCCCO1)N1CCCN(C2CCCC2)CC1	15
C=CC(=O)N1CCOc2ncccc2C1	9.48
C=CC(=O)N1CC(C)(CC(F)(F)F)C1	7.14
C=CC(=O)N1CCN(S(=O)(=O)CC)CC1	11.7
CC1(C)CCC(OS(C)(=O)=O)CC1	16.9
CCCc1nc(C#N)co1	4.99
N#Cc1cnc2ccccn12	21.5
O=C(Cn1c(-c2ccccn2)noc1=O)N1CCCCC1	8.8
CC1CN(C(=O)CN2CCSC2=O)C(C)CO1 (stereo not drawn)	4.59
CC(C)C(NS(=O)(=O)C=Cc1ccccc1)C(=O)O (stereo not drawn)	2.61
Cn1cccc1C(=O)NS(=O)(=O)C=Cc1ccc(F)cc1	8.72
O=C(c1cc(Cl)ccc1O)N1CCCC(C2OCCO2)C1 (stereo not drawn)	8.28
CN(CCc1nccs1)C(=O)c1cccnc1S	5.89
CCN(C(=O)c1ccc(B(O)O)cc1)C1CCOC(C)(C)C1 (stereo not drawn)	8.49
N#Cc1nccnc1N	4.54
N#CC(=Cc1ccncc1)C(=O)Nc1cccc(Cl)c1	10.5
C=CC(=O)NC1C2C3CC4C5CC(C42)C1C53 (stereo not drawn)	11
C=CC(=O)NCc1ccc2c(c1)OCO2	11.2
C=CC(=O)NCc1csc2ccccc12	7.7

Compound	Inhibition % [%]
CC1(CO)CCCC1Nc1ccc(C#N)nc1 (stereo not drawn)	6.61
CC1CC(N(C)CC2CCCCC2)C(=O)O1 (stereo not drawn)	4.89
O=C(CCl)Nc1ccc([N+](=O)[O-])cc1C(F)(F)F	12.1
C=CC(=O)N1CCc2cccc(OC)c2CC1	7.14
COc1ccccc1CN(C)C(=O)CCl	98.6
N#Cc1cc(N2C[C@@H](F)C[C@H]2CO)ccn1	37.7
N#Cc1nccnc1N1CCC(Cc2ccccc2)C1 (stereo not drawn)	5.93
Cn1cc(C=C2N=C(c3ccccc3F)OC2=O)cn1	-1.81
OB(O)c1ccc(OCC2CC2)cc1	0.734
O=C(CN1CCSC1=O)Nc1cnccc1O	0.99
N#Cc1cc(CO)ccn1	8.51
COC(C)(C)CNC(=O)c1cccnc1S	20.8
C=CC(=O)N1CCOCC1c1cccn1C (stereo not drawn)	7.42
CCN1CCC(NC(=O)CCl)CC1.Cl	7.55
N#CN(CC(=O)NCc1ccco1)c1ccc(F)cc1	2.46
N#Cc1nc(-c2ccccc2)no1	3.03
C=CC(=O)Nc1ccc(F)c(C2CC2)c1	3.08
CC1CN(C(=O)c2ccc(Cl)c(C#N)n2)C(C)CN1C (stereo not drawn)	2.96
CN(Cc1cccc(Cl)c1)c1nccnc1C#N	7.07
Cc1ccc(NC(=O)Cn2cnc(C#N)n2)cc1	16.2
Cn1ncc(C(=O)O)c1C#N	13.7
C=CC(=O)NC(NC(=O)C=C)c1ccccc1F	14.4
